According to PubChem BioAssay AID602332 (National Center for Advancing Translational Sciences (NCATS), 2012):
Where “and” joins values, the source holds several entries; their conditions need not be identical. Equal entries are not always repeated. Hit rate of the full screen: of about 420,000 compounds, about 75 (0.02%) were called active. This list was built around the results that the source calls inconclusive (neither active nor inactive); the mix of calls is not that of the screen. Calls follow the shape of the dose curve; as a rule, active = well fitted activation curve with a large enough effect; inconclusive = small, poorly fitted or top-dose-only effect; inactive = no such curve, though single readings can be large or run the other way. A potency beside an inconclusive call is a rough fit, not a confirmed value.

Experiment: qHTS for Inducers of the Endoplasmic Reticulum Stress Response (ERSR) in Human Glioma: qHTS; also: nearly all actives have a fitted effect of over 35% in size; as to activation: % of control where 0% means no effect
Details: U87-MG GRP78 promoter luciferase reporter, 16 h; activation: active compounds read high
Method in brief: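 ERSR induction read as luciferase luminescence (Bright-Glo, 10 min at room temperature) in stably transfected human U87-MG glioma cells exposed to compounds for 16 h, using GRP78 as sensor.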
Potency is read from the fitted curve at half-maximal effect; tags tell the direction and shape of the fitted curve.

Potency, active:
COc1ccc(CNc2oc(/C=C/c3cc(OC)c(OC)c(OC)c3)nc2C#N)cc1 31.6 µM

Potency, inconclusive:
OCCCNc1c2ccccc2nc2ccccc12 28.2 µM [activator, single point]
O=C(NCc1ccc(Cl)cc1)c1cc2ccccc2oc1=O 14.1 µM [activator, single point]
CN1CCN(CCC(=O)Nc2cccc(Br)c2)CC1 50.1 µM [activator, single point]
COC(=O)C(=Cc1ccc(OCc2ccc([N+](=O)[O-])cc2)c(OC)c1)C(=O)OC 2.24 µM [activator, partial curve, poor fit]
O=C(Nc1nnc(SCc2ccc(F)cc2)s1)c1ccco1 28.2 µM [activator, single point]
Oc1ccc(NCc2ccccc2OCc2ccccc2)cc1 28.2 µM [activator, single point] and 31.6 µM [activator, partial curve, poor fit]
CCOC(=O)COc1ccc2c3c(c(=O)oc2c1C)CCC3 50.1 µM [activator, single point]
CC(C)(C)C(=O)NC(=S)NNC(=O)c1ccc(Cl)cc1Cl 12.6 µM [activator, full curve, poor fit]
NC(=O)c1ccsc1NC(=O)CS(=O)(=O)c1ccc(Cl)cc1 28.2 µM [activator, single point]
C/C(=N\NC(=O)c1ccncc1)c1cccnc1 50.1 µM [activator, single point]
CCCOc1ccc(C(=O)NNC(=S)NC(=O)c2cc(-c3ccccc3)nc3ccccc23)cc1 44.7 µM [activator, partial curve, poor fit]
O=C(Nc1ncccc1O)c1ccc(S(=O)(=O)Nc2ccccc2)cc1 10 µM [activator, full curve, poor fit]
CSc1nsc2nc(=O)c(/C=C3\C(C)=Nc4ccccc43)c(N)n12 44.7 µM [activator, partial curve, poor fit]
CC(/C=C/C(=O)NO)=C\[C@@H](C)C(=O)c1ccc(N(C)C)cc1 1.26 µM [activator, full curve, poor fit] and 12.6 µM [activator, partial curve, poor fit]
CCn1c(C)nc2cc(S(=O)(=O)C(F)(F)C(F)C(F)(F)F)ccc21 (stereo not given) 22.4 µM [activator, partial curve, poor fit]
CC(C)c1ccc2c(c1)c(SC(C)(C)C)c(CC(C)(C)C(=O)O)n2Cc1ccc(Cl)cc1 22.4 µM [activator, partial curve, poor fit] and 14.7 µM [activator, full curve]
O=C(Nc1ccccc1Cl)C(Cl)C(=O)c1ccccc1 (stereo not given) 50.1 µM [activator, single point]
Cc1cc([N+](=O)[O-])nn1CC(=O)NCc1cccs1 31.6 µM [activator, single point]
COc1ccc(OCc2nnc(SC3CCOC3=O)n2-c2ccccc2)cc1 (stereo not given) 14.1 µM [activator, single point]
CCOc1ccccc1CNC(=O)C1CCN(c2nnc(C)c3c(C)n(-c4ccc(C)cc4)nc23)CC1 25.1 µM [activator, single point]
Cc1cc(C(=O)N2CCCC(N3CCN(c4cccc(C(F)(F)F)c4)CC3)C2)n[nH]1 (stereo not given) 11.2 µM [activator, partial curve, poor fit]
CC1(C)CC(=O)C2=C(C1)OC(N)=C(C#N)C2c1cn(-c2ccccc2)nc1-c1ccc(F)cc1 (stereo not given) 50.1 µM [activator, partial curve, poor fit]
Cc1ccc(CN(C)C(=O)c2cc(COc3ccc(F)cc3Cl)on2)o1 11.2 µM [activator, partial curve, poor fit]
Cc1cc2oc(=O)cc(CN(C)Cc3cccc(F)c3)c2cc1Cl 11.2 µM [activator, full curve, poor fit]
O=C(Nc1ccccn1)c1ccc([N+](=O)[O-])cc1Cl 11.2 µM [activator, single point]
N#CC1CN(C(c2ccccc2)c2ccccc2)C1 50.1 µM [activator, single point]
COCC1CCN(C(=O)c2oc3c(F)cccc3c2C)C1 (stereo not given) 31.6 µM [activator, partial curve, poor fit]

activation, inactive:
CO/N=C/c1ccc(Sc2ccccc2)c([N+](=O)[O-])c1 6.59%
O=C(/C=C/Nc1ccccc1)c1ccccc1 -7.63%
COc1ccccc1C(C)Nc1nc(-c2cccnc2)nc2ccccc12 (stereo not given) -1.79%
COc1cc(/C=N/NS(=O)(=O)c2ccc3ccccc3c2)ccc1OCc1ccc(C(=O)O)cc1 -14.6%
COc1c2ccccc2c(OC)c2ccccc12 2.22%
O=C(Cn1nc(CNc2ccc(Cl)cc2)[n+]2c1CCCCC2)c1ccccc1 -3.57%
Cc1cc(S(=O)(=O)C(CNC(=O)c2ccc(OC(C)C)cc2)c2cccs2)ccc1F (stereo not given) -0.103%
O=C(O)c1ccc(CNCc2cccc(Oc3ccccc3)c2)cc1 -3.01%
C/C=C(/C)C(=O)OC1c2c(ccc3ccc(=O)oc23)OC(C)(C)C1OC(=O)/C(C)=C\C (stereo not given) -1.54%
O=C1CC(c2ccc(O)c(O)c2)Oc2c1ccc(O)c2O (stereo not given) 9.81%
Cn1c(=S)[nH]c2[nH]c(=O)cnc2c1=O -3.29%
C[C@H](CO)N1C[C@H](C)[C@@H](CN(C)S(=O)(=O)c2cccc(F)c2)OCc2cn(nn2)CCCC1=O -2.46%
